# The supplement of paper PMC10338343
# ± gives the standard deviation. The full ranking holds about 3,000 sequences; the median of “pre-steady-state target cleavage rate” is about 0.0079, and the highest 2% start at about 0.2. The list shows a part of the results, in another mix than the full data.
# Tested on: MILI (PIWIL2) piRISC loaded with piRNA #2 (26 nt)
# Experiment: pre-steady-state target cleavage rate (min^-1); MIWI and MILI are mouse PIWI proteins and EfPiwi is from a freshwater sponge; tags in brackets are library labels; higher = faster piRNA-guided slicing of the target
# Settings: guide: piRNA #2 5'p-UUAGGUAACCCAGUAGAUCCAGAGGA; auxiliary factor: 500 nM mouse GTSF1
# Experimental: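 Cleave-'n-Seq: a library of target RNAs (target site embedded in constant flanks, ACAGCATTCCGCGTTAGTGATATCCG... 5' flank; DNA-blocked outside the site) at 0.1 nM was incubated with 1 nM active mouse MILI or MIWI piRISC (synthetic 5'-monophosphorylated piRNA guide) with or without 500 nM mouse GTSF1 at 33 °C for 1 min to 16 h. Uncleaved targets were sequenced and normalised to non-target controls, and the pooled three trials were fitted to a burst-and-steady-state model to give the pre-steady-state cleavage rate (min^-1; k3 is constrained to at most 1e-4). Sequence is the target site only; target names encode pairing extent (gX:gY) and contiguous / 1-mismatch / 2-mismatch / bulge geometry. Fits with R² ≤ 0 are excluded.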
row,Sequence,pre-steady-state target cleavage rate
1,CUUAAGGACUGGAUCUAGUGGGUUACGUAA,0.00654 ± 0.0057
2,CUUAACCUCUGGAACUACUGGGUAACCUAA,0.06 ± 0.024
3,CUUAUCGUGUGGAUCUACUGGGUUACCUAA,0.0734 ± 0.013
4,CUUAAGGUGUGGAUCUAGUGGGUUACCUAA,0.026 ± 0.0078
5,CUUAAGCUCUGGAUCUACUGCGUUACCUUA,0.00818 ± 0.0052
6,CUUAAGCUCUGGAUCUACUGGGUAACCAAA,0.00645 ± 0.006
7,CUUAAGGUCUGGAUCUACAGGGUAACCUAA,0.0435 ± 0.013
8,CUUAAGGAGAGGAUCUACUGGGUUUACCUAA,0.0063 ± 0.0027
9,CUUAACCUCUGGUUGUACUGGGUUACCUAA,0.106 ± 0.019
10,CUUAACCUCUGGAUCUGCUGGGUUACCUAA,0.097 ± 0.028
11,CUUAACCACUGGAUCUACUGGGUAACCUAA,0.0323 ± 0.0092
12,CUUAAGGAGUGGAUCGACUGGGUUACCUAA,0.0242 ± 0.0089
13,CUUAAGGACACCAUCUACUGGGUUACCUAA,0.00379 ± 0.0035
14,CUUAAGCUCUGGAUCUACUGGGUAAGCUAA,0.0647 ± 0.018
15,CUUAAGCUCUCGAUCUACUGCGUUACCUAA,0.0193 ± 0.0068
16,CUUAACCUCUGGAACUACUGGGUUACCUAA,0.133 ± 0.03
17,CUUAUCCUCUGGAUGUACUGGGUUACCUUA,0.09 ± 0.022
18,CUUAAGGAGUCGAUCUACAGGGUUACCUAA,0.0107 ± 0.004
19,CUUAAGGUCUGGAUCUACUGGGUCACCUAA,0.0232 ± 0.0097
20,CUUAAGGUCUGCAUCUACAGGGUUACCUAA,0.0777 ± 0.014
21,CUUAAGGAGUGCAUCUACAGGGUUACCUAA,0.0222 ± 0.0091
22,CUUAACCUGUGGAUCUAGUGGGUUACCUAA,0.0719 ± 0.014
23,CUUAAGGAGACCUUCUACUCGGUAACCUAA,< 0.0001
24,CUUAUCCUCUGGAUCUCUGGGUUACCUAA,0.0227 ± 0.01

row,Sequence,pre-steady-state target cleavage rate
1,CUUAAGGACUGGAUCUACUGGGUUACCUCAA,0.0196 ± 0.014
2,CUUAAGCUGUGGAUCUUCUGGGUUACCUAA,0.0316 ± 0.015
3,CUUAAGCACUGGAUCUACUGGGUUAGCUAA,0.0264 ± 0.01
4,CUUAAGGUCUGGAUCUACUGGGUUUGCUAA,0.0757 ± 0.029
5,CUUAACGAGUGGAUCUACUGGGUUACCUAA,0.0724 ± 0.021
6,CUUAAGGAGACCUAGUACUGGGUUACGAUA [g5:g15:cont:t1A],< 0.0001
7,CUUAUCCUGUGGAUCUACUGGGUUACCUAA,0.092 ± 0.014
8,CUUAAGGUCUGGAUCUACUGGGUUUCCUAA,0.0766 ± 0.02
9,CUUAAGGUCUGGAUCUACUGGGUUACCAAA,0.048 ± 0.01
10,CUUAUCCUCUCGAUCUACUCGGUUACCUAA,0.0053 ± 0.0015
11,CUUAUCCACAGGAUCUACUGGGUUACCUAA,0.0392 ± 0.011
12,CUUAAGCUCUGGAUCUACUGGGUUAUCCUAA,0.0827 ± 0.018
13,CUUAACCUCAGGAUCUACUGCGUUACCUAA,0.0123 ± 0.0061
14,CUUAAGGUCUGGAUGUACUGGGUUUCCUAA,0.0124 ± 0.011
15,CUUAUCCUCUGGAUCUACUGCGUUUCCUAA,0.00538 ± 0.004
16,CUUAAGGAGUGGAUCUAGUGGGUAACCUAA,0.00624 ± 0.0032
17,CUUAAGGUCUCGAUCUACUGGGAUACCUAA,0.0139 ± 0.0058
18,CUUAUCCUCAGGAACUACUGGGUUACCUAA,0.107 ± 0.02
19,CUUAAGCUCUGGAAUCUACUGGGUUACCUAA,0.0887 ± 0.022
20,CUUAUCCACUGGAUCUAGUGGGUUACCUAA,0.0753 ± 0.013
21,CUUAUCCUCUGGAUGUAGUGGGUUACCUAA,0.0679 ± 0.01
22,CUUAAGGACUGGAUCUACAGGGUUAGCUAA,0.0183 ± 0.0082
23,CUUAACCUCUGCAUCUACUCGGUUACCUAA,0.00303 ± 0.003
24,CUUAAGCUCUGGAUCUAGUGGGUUACGUAA,0.0139 ± 0.0039

row,Sequence,pre-steady-state target cleavage rate
1,CUUAACCUCUGGAUCUACUGGGUUAGCAAA,0.0809 ± 0.022
2,CUUAAGGACUGGAUCUACAGGGAUACCUAA,0.0157 ± 0.0078
3,CUUAUGCUCUGGUUCUACUGGGUUACCUAA,0.178 ± 0.037
4,CUUAAGGAGAGCAUCUUCUGGGUUACCUAA,0.0076 ± 0.0058
5,CUUAAGGAGUGGAUCUACUGGGUUACCAAA,0.0137 ± 0.0062
6,CUUAAGGUCAGGAUCUAGUGGGUUACCUAA,0.0133 ± 0.0076
7,CUUAUCCUCUGGAUGAACUGGGUUACCUAA,0.0359 ± 0.011
8,CUUAAGGUAUGGAUCUACUGGGUUACCUAA,0.0635 ± 0.015
9,CUUAAGGACUGGAUCUACAGGGUUACCUAA,0.0863 ± 0.015
10,CUUAAGGACUGGUUCUAGUGGGUUACCUAA,0.0139 ± 0.0072
11,CUUAAGCUCUGGAUCUACUGGGUUACCUUA,0.0784 ± 0.018
12,CUUAAGGUCUGGACUACUGGGUUACCUAA,0.0417 ± 0.015
13,CUUAAGGACUGGAUCAAGUGGGUUACCUAA,0.00753 ± 0.005
14,CUUAACCUCUGGUUCUACUCGGUUACCUAA,0.00985 ± 0.0055
15,CUUAAGGAGACCUACUACUUGGUUACCUAA,< 0.0001
16,CUUAAGGAGAGGAUCUACUGGGUUACCUUA,0.00788 ± 0.0047
17,CUUAAGGUCUGGAUCUAGUGGGUAACCUAA,0.0225 ± 0.007
18,CUUAAGGUCUGGUACUACUGGGUUACCUAA,0.0536 ± 0.021
19,CUUAAGCUGUGCAUCUACUGGGUUACCUAA,0.0912 ± 0.028
20,CUUAAGGACUCGGAUCUACUGGGUUACCUAA,0.0209 ± 0.0086
21,CUUAUCUCUCUGGAUCUACUGGGUUACCUAA,0.0647 ± 0.018
22,CUUAUCCUCUGGAUCUACAGGGUUACCUAA,0.119 ± 0.016
23,CUUAAGCUCUGGAUCUACUGGGUUACCUUAA,0.0518 ± 0.015
24,CUUAUCCUCUCGAUCUACUGGGUUACGUAA,0.0518 ± 0.015
